Measured values as given in the supplement of paper PMC12578646, “Prodrug florfenicol amine is activated by intrinsic resistance to target Mycobacterium abscessus” (Nature Microbiology, 2025).

Key:
[1] = test system: Mycobacterium abscessus ATCC 19977 Eis2 E120fs
Protocol: (§1)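 384-well two-fold dose series, two replicates; 5 days at 37 °C, then 24 h with resazurin; fluorescence scaled to growth and killed controls.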

[2] = test system: Mycobacterium abscessus ATCC 19977 Eis2 Y227D
Protocol: as §1

[3] = test system: Mycobacterium abscessus ATCC 19977 Δeis2
Protocol: as §1

[4] = test system: Mycobacterium abscessus ATCC 19977 WhiB7 F24fs
Protocol: as §1

[5] = test system: Mycobacterium abscessus ATCC 19977 WhiB7 L37P
Protocol: as §1

[6] = test system: Mycobacterium abscessus ATCC 19977 WhiB7 A51T
Protocol: as §1

[7] = test system: Mycobacterium abscessus ATCC 19977 Eis2 Y255*
Protocol: as §1

[8] = test system: Mycobacterium abscessus ATCC 19977 WhiB7 T70fs
Protocol: as §1

[9] = test system: Mycobacterium abscessus ATCC 19977 Eis2 Y284*
Protocol: as §1

[10] = test system: Mycobacterium abscessus ATCC 19977 Eis2 T258R
Protocol: as §1

[11] = test system: Mycobacterium abscessus ATCC 19977 ΔwhiB7
Protocol: as §1

[12] = test system: Mycobacterium abscessus ATCC 19977 WhiB7 R76del
Protocol: as §1

[13] = test system: Mycobacterium abscessus ATCC 19977 Eis2 E120fs; assay: growth relative to untreated wells; higher = more growth (less inhibition)
Protocol: as §1

[14] = test system: Mycobacterium abscessus ATCC 19977 Eis2 Y227D; assay: as above
Protocol: as §1

[15] = test system: Mycobacterium abscessus ATCC 19977 Δeis2; assay: as above
Protocol: as §1

[16] = test system: Mycobacterium abscessus ATCC 19977 WhiB7 F24fs; assay: as above
Protocol: as §1

[17] = test system: Mycobacterium abscessus ATCC 19977 WhiB7 L37P; assay: as above
Protocol: as §1

[18] = test system: Mycobacterium abscessus ATCC 19977 WhiB7 A51T; assay: as above
Protocol: as §1

[19] = test system: Mycobacterium abscessus ATCC 19977 Eis2 Y255*; assay: as above
Protocol: as §1

[20] = test system: Mycobacterium abscessus ATCC 19977 WhiB7 T70fs; assay: as above
Protocol: as §1

[21] = test system: Mycobacterium abscessus ATCC 19977 Eis2 Y284*; assay: as above
Protocol: as §1

NC[C@H]1O[C@H](O[C@H]2[C@H](O)[C@@H](O[C@H]3O[C@H](CO)[C@@H](O)[C@H](N)[C@H]3O)[C@H](N)C[C@@H]2N)[C@H](O)[C@@H](O)[C@@H]1O [kanamycin A]
Settings	IC50 [mg/L]
[1]	0.543 (≈ 1.12 µM)
[2]	0.468 (≈ 0.966 µM)
[3]	0.437 (≈ 0.902 µM)
[4]	0.42 (≈ 0.868 µM)
[5]	0.314 (≈ 0.648 µM)
[6]	0.429 (≈ 0.886 µM)
[7]	0.49 (≈ 1.01 µM)
[8]	0.316 (≈ 0.652 µM)
[9]	0.49 (≈ 1.01 µM)
[10]	0.45 (≈ 0.928 µM)
[11]	0.267 (≈ 0.551 µM)
[12]	0.423 (≈ 0.872 µM)

growth [%]
Settings	[13]	[14]	[15]	[16]	[17]	[18]	[19]	[20]	[21]
0.03125 µg/mL	119	121.1	107	108	120	110	113.6	108	113
0.0625 µg/mL	126	123	113	124	122	122	122	123	119
0.125 µg/mL	126	124	115	115.9	134	124	130	117	112
0.25 µg/mL	134	135.7	136	133.6	135.9	135	138	128	131.1
0.5 µg/mL	83	32.9	5.28	0.381	-0.0539	1.23	41.5	-1.94	40.7
1 µg/mL	-0.0562	0.49	-0.606	0.128	-0.526	-0.407	-2.42	-2.85	-1.06
2 µg/mL	-0.494	0.315	-1.23	-0.404	-0.482	-0.628	-2.33	-3.45	-0.628
4 µg/mL	-0.786	-0.0789	-1.88	-1.33	-1.06	-1.3	-1.79	-3.53	-1.87
8 µg/mL	-1.07	0.141	-2.18	-0.883	-1.02	-1.6	-2.68	-3.39	-1.73
16 µg/mL	4.25	0.525	-1.41	-0.762	-0.463	-0.757	-2	-2.95	-1.01
32 µg/mL	-0.644	0.692	-0.985	-0.229	-0.406	-0.418	-1.7	-2.32	-0.632
64 µg/mL	1.03	2.62	-0.218	0.868	1.12	0.756	-0.489	-1.52	5.52

NC[C@H]1O[C@H](O[C@H]2[C@H](O)[C@@H](O[C@H]3O[C@H](CO)[C@@H](O)[C@H](N)[C@H]3O)[C@H](N)C[C@@H]2N)[C@H](N)[C@@H](O)[C@@H]1O [kanamycin B]
Settings	IC50 [mg/L]
[1]	3.46 (≈ 7.15 µM)
[2]	3.38 (≈ 6.99 µM)
[3]	2.48 (≈ 5.14 µM)
[4]	1.72 (≈ 3.56 µM)
[5]	1.27 (≈ 2.64 µM)
[6]	1.72 (≈ 3.56 µM)
[7]	2.5 (≈ 5.18 µM)
[8]	1.73 (≈ 3.59 µM)
[9]	2.55 (≈ 5.28 µM)
[10]	2.63 (≈ 5.43 µM)
[11]	1.23 (≈ 2.55 µM)
[12]	1.56 (≈ 3.23 µM)

growth [%]
Settings	[13]	[14]	[15]	[16]	[17]	[18]	[19]	[20]	[21]
0.03125 µg/mL	114	110	103.2	122	116	107	115	111	113
0.0625 µg/mL	113	117	106	118	130	123	114.8	115	112.3
0.125 µg/mL	117	116	104.3	116	123	107	115	112	111
0.25 µg/mL	121	118.1	106	123	129	116	119.7	110.2	111
0.5 µg/mL	122	116	107	127	127.7	123	130	123	118
1 µg/mL	137	137	129	130	132	132	134	130	129.1
2 µg/mL	150	143.1	107	0.901	-0.32	2.15	123	3.24	120
4 µg/mL	2.59	1.32	-0.708	-0.157	-0.0836	-0.466	-1.09	-3.61	-0.379
8 µg/mL	-0.378	0.804	-1.03	-0.149	-0.251	-0.664	-1.88	-2.63	-0.717
16 µg/mL	0.0344	1.13	-0.75	0.11	-0.108	-0.101	-1.65	-2.4	5.84
32 µg/mL	0.944	1.66	-0.267	-0.155	-0.0763	0.369	-1.24	-2.14	0.0245
64 µg/mL	1.33	2.76	0.368	1.58	1.39	0.893	-0.445	-0.817	1.02

Converted amounts (≈) assume the structure as drawn. M. abscessus ATCC 19977 and its deletion, point and complemented mutants after 5 days of drug at 37 °C plus 24 h of resazurin. Growth in % of untreated wells at the dose given (lower = more inhibition); checkerboards give % inhibition (higher = more inhibition); IC50 from the fitted curve (lower = more potent). No active / inactive call. IC50 values come from the same 384-well curves. Growth is not capped and can exceed 100%. The direction of the checkerboard scale is read from the raw signals. Capreomycin is a mixture.
